# Experimental data as given in the supplement of paper PMC4967469.
# Lines with a small IC50 respond at low doses; a fit beyond the top or the lowest dose is shown as a bound at that dose. AUC is the area under the same curve over the 256-fold range up to the top dose, as a fraction: 1 means no effect, lower means more sensitive. For some assays here: Any top dose called inferred was calculated from the reported fits. For some assays here: Drugs with an entry number were screened twice under separate entries, and the two screens often disagree.
# Key:
# Test in all cases: Viability of human cancer cell lines after 72 h of drug (GDSC screen)
# SB-505124 = compound: Cc1cccc(-c2[nH]c(C(C)(C)C)nc2-c2ccc3c(c2)OCO3)n1 [SB-505124]; settings: top dose 10 µM; top dose inferred
# Procedure: (§1)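 Human cancer cell lines in 384-well plates, medium with 10% serum, drug for 72 h over a 256-fold dose range (nine 2-fold or five 4-fold steps up to the top dose). Adherent lines were fixed and stained with the nucleic acid dye Syto60, suspension lines read with resazurin; signal relative to control wells, capped at 0 and 100%. One two-parameter sigmoid per drug and line, fitted in a mixed model over all curves with the slope shared within a line.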
# BX-795 = compound: O=C(NCCCNc1nc(Nc2cccc(NC(=O)N3CCCC3)c2)ncc1I)c1cccs1 [BX-795]; settings: top dose 5 µM; top dose inferred
# Procedure: as §1
# Tretinoin = compound: CC1=C(/C=C/C(C)=C/C=C/C(C)=C/C(=O)O)C(C)(C)CCC1 [Tretinoin]; settings: top dose 10 µM; top dose inferred
# Procedure: as §1
# PI-103 = compound: Oc1cccc(-c2nc(N3CCOCC3)c3oc4ncccc4c3n2)c1 [PI-103]; settings: top dose 10.24 µM
# Procedure: as §1
# UNC0638 = compound: COc1cc2c(NC3CCN(C(C)C)CC3)nc(C3CCCCC3)nc2cc1OCCCN1CCCC1 [UNC0638]
# Procedure: as §1
# GSK690693 = compound: CCn1c(-c2nonc2N)nc2c(C#CC(C)(C)O)ncc(OC[C@H]3CCCNC3)c21 [GSK690693]; settings: top dose 10.24 µM; top dose inferred
# Procedure: as §1
# [1] = top dose 20 µM, screen: GDSC drug entry 1236, top dose inferred
# [2] = top dose 40 µM, screen: GDSC drug entry 245
Cell Line,AUC (SB-505124),IC50 (SB-505124) [µM],AUC (BX-795),IC50 (BX-795) [µM],AUC (Tretinoin),IC50 (Tretinoin) [µM],AUC (PI-103),IC50 (PI-103) [µM],AUC (UNC0638; [1]),IC50 (UNC0638; [1]) [µM],AUC (UNC0638; [2]),IC50 (UNC0638; [2]) [µM],AUC (GSK690693),IC50 (GSK690693) [µM]
"LOU-NH91 (lung squamous cell carcinoma, adherent)",0.984,> 10,0.932,> 5,0.973,> 10,0.959,> 10.2,0.843,16,0.831,28.6,0.986,> 10.2
"LS-180 (large intestine, adherent)",0.975,> 10,0.981,> 5,0.975,> 10,0.972,> 10.2,0.982,> 20,0.9,> 40,0.969,> 10.2
"LU-135 (small cell lung carcinoma, suspension)",0.992,> 10,0.73,1.22,0.984,> 10,0.213,0.112,0.83,9.73,0.639,5.62,0.915,> 10.2
"LoVo (large intestine, adherent)",0.971,> 10,0.926,> 5,0.954,> 10,0.941,> 10.2,0.983,> 20,0.936,> 40,0.987,> 10.2
"MC-IXC (neuroblastoma, adherent)",0.996,> 10,0.863,2.56,0.311,0.217,0.73,2.33,0.996,> 20,0.863,20.5,0.994,> 10.2
"MDA-MB-330 (breast, adherent)",0.973,> 10,0.981,> 5,0.875,> 10,0.805,6.02,0.984,> 20,0.839,32.8,0.96,> 10.2
"MDA-MB-361 (breast, adherent)",0.98,> 10,0.976,> 5,0.965,> 10,0.947,> 10.2,0.987,> 20,0.942,> 40,0.901,> 10.2
"MDA-MB-415 (breast, adherent)",0.894,> 10,0.983,> 5,0.97,> 10,0.943,> 10.2,0.896,> 20,0.927,> 40,0.962,> 10.2
"MDA-MB-436 (breast, adherent)",0.946,> 10,0.943,> 5,0.984,> 10,0.904,> 10.2,0.98,> 20,0.852,> 40,0.984,> 10.2
"MDA-MB-453 (breast, adherent)",0.965,> 10,0.973,> 5,0.986,> 10,0.438,0.426,0.984,> 20,0.717,11.1,0.673,2.06
"MDA-MB-468 (breast, adherent)",0.987,> 10,0.754,1.62,0.983,> 10,0.66,1.75,0.839,12.9,0.72,10.2,0.845,6.98
"MEL-JUSO (melanoma, adherent)",0.981,> 10,0.842,4.13,0.984,> 10,0.568,1.01,0.779,9.2,0.547,3.42,0.95,> 10.2
"MES-SA (uterus, adherent)",0.961,> 10,0.844,2.83,0.972,> 10,0.962,> 10.2,0.89,17.1,0.992,> 40,0.984,> 10.2
"MFE-280 (endometrium, adherent)",0.915,> 10,0.975,> 5,0.982,> 10,0.733,3.58,0.848,> 20,0.885,> 40,0.764,4.71
"MFE-296 (endometrium, adherent)",0.943,> 10,0.877,> 5,0.956,> 10,0.85,8.65,0.9,> 20,0.97,> 40,0.808,5.8
"MG-63 (osteosarcoma, adherent)",0.982,> 10,0.752,1.9,0.935,> 10,0.984,> 10.2,0.914,> 20,0.886,> 40,0.984,> 10.2
"MHH-ES-1 (Ewing sarcoma, adherent)",0.958,> 10,0.771,1.89,0.98,> 10,0.39,0.32,0.739,5.95,0.676,7.71,0.895,> 10.2
"MOG-G-CCM (glioma, adherent)",0.958,> 10,0.795,2.76,0.909,> 10,0.417,0.365,0.817,13.6,0.711,11,0.913,> 10.2
"MOG-G-UVW (glioma, adherent)",0.947,> 10,0.79,2.16,0.895,> 10,0.515,0.701,0.846,14,0.732,11.2,0.971,> 10.2
